Laboratory results taken from PubChem BioAssay AID1159614 (National Center for Advancing Translational Sciences (NCATS), 2016).
In all, about 45,000 compounds went through this assay and about 65 (0.1%) were called active. Calls come from the whole dose curve; as a rule, active = well fitted activation curve with a large enough effect; inconclusive = small, poorly fitted or top-dose-only effect; inactive = no such curve, though single readings can be large or run the other way. This is one part of the list.

target: Galactocerebrosidase (Homo sapiens) (UniProt P54803); test: A Novel Cell-Based Assay to Identify Small Molecules for B -Galactocerebrosidase; conditions: 145M-Twi-hGALC-G270D cells (Twitcher mouse brain line with human GALC G270D), HMU-beta-Gal fluorescence, 48 h; series mostly up to 57.5 µM; activation: at the top concentration; note: 0% is about no effect; nearly all actives have a fitted effect of over 65% in size
Method in brief: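 Fluorogenic HMU-b-Gal hydrolysis (0.1 mM final, pH 5.2 citrate-phosphate with 1 mg/mL sodium taurocholate; carbonate stop buffer) measures mutant GALC activity after compound treatment of live 145M-Twi Twitcher brain cells stably carrying human GALC-G270D, with wild-type GALC line alongside; activation sought.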

UniProt P54803, sequence (P54803 whole entry, looked up): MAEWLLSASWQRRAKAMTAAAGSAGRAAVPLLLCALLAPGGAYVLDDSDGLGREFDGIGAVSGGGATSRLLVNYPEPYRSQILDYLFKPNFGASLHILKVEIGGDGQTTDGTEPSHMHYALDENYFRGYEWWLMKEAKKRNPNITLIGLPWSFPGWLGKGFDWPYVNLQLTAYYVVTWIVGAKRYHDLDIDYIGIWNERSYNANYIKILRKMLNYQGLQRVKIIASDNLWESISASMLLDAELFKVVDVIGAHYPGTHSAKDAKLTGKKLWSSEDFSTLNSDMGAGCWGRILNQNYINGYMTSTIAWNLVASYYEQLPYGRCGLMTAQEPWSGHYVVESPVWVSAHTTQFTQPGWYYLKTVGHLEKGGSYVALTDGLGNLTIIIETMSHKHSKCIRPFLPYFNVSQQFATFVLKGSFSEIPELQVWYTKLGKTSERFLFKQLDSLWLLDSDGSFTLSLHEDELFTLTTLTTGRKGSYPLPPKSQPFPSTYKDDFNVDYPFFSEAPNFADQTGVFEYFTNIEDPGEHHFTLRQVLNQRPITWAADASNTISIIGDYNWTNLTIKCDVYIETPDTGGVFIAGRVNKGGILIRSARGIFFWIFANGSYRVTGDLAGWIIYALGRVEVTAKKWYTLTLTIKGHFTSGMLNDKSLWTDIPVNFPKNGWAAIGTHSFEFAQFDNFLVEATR

activation, inactive:
N=c1n(CCN2CCCCC2)c2ccccc2n1CC(O)COc1ccccc1 (configuration not stated) -4.84%
CCC(=O)N1CCc2cc(S(=O)(=O)CCC(=O)N3CCN(c4cccc(Cl)c4)CC3)ccc21 -11.4%
CSc1ccc(C(=O)Nc2ccc(-c3nc4ccccc4s3)c(O)c2)cc1 14.9%
Cc1cc(C)cc(NC(=O)c2oc3ccc4c(c3c2C)C(=O)CC(C)(C)O4)c1 -3%
COc1ccc2c(c1)c1c(c(=O)n(Cc3ccccc3)c(=O)n1CC(=O)NCc1ccc(C)cc1)n2C -7.22%
CCc1ccc(NC(=O)c2ccc3nc(C(C)C)oc3c2)cc1 -11.1%
CSc1ccc(-c2nc3c(C)cccn3c2Nc2ccc3c(c2)OCCO3)cc1 -15.8%
COc1cc(OC)c(NC(=O)Cn2c(=O)cc(C)c3c(C)nn(-c4ccc(C)cc4)c32)cc1Cl 1.23%
Cc1ccc(OCc2nnc(SCC(=O)Nc3ccccc3C(C)C)o2)cc1 -15%
CCC1CCc2nc3sc(C(=O)Nc4ccc(C)cc4C)c(N)c3cc2C1 (configuration not stated) -16.2%
COC(=O)Cn1ccc2cc(S(=O)(=O)N3CCCCCC3)ccc21 -12.3%
CCOC(=O)N1CCC2(CC1)OC(=O)C(C)=C2C(=O)NCc1ccc(C)cc1 -10.6%
CCNC(=O)c1ccc(CSc2nc3cccnc3n2Cc2ccc(OC)cc2)cc1 -48.5%
CCCc1cnc2c(c1SCC(=O)Nc1c(C)cc(C)cc1C)c(=O)n(C)c(=O)n2C -13%
COC(=O)c1ccc(NC(=O)Cn2c(-c3nonc3N)nc3ccccc32)cc1 -8.97%
Cc1cccc(-c2nc(CN3CCCC(C(=O)NCc4ccc(Cl)cc4)C3)c(C)o2)c1 (configuration not stated) -9.76%
Cc1nn(CC(=O)N2CCC(C)CC2)c(=O)c2cc3occc3n12 -18.1%
O=C(NCCc1csc(-c2cccc(F)c2)n1)c1ccccc1C(F)(F)F -11.7%
CCN(C(=O)CN1C(=O)COc2ccc(S(=O)(=O)N3CCOCC3)cc21)c1cccc(C)c1 -2.05%
COc1ccc(CNC(=O)CCCn2c(=O)c3cccn3c3ccc(F)cc32)cc1OC -7.04%
Cc1ccc(-n2ncc(C(=O)NCc3ccccn3)c2C2CCN(C(=O)OC(C)(C)C)CC2)c(C)c1 -14.3%
COc1ccc(NC(=O)CN2C(=O)CSc3ccc(S(=O)(=O)N(C)C)cc32)cc1Cl -8.79%
O=C(Nc1ccc(Cl)c(C(F)(F)F)c1)c1ccc2c(c1)CCN2S(=O)(=O)c1ccccc1 -15.9%
Cc1ccc2occ(CC(=O)Nc3ccc(S(=O)(=O)N4CCCC(C)C4)cc3)c2c1 (configuration not stated) -16.3%
COc1ccc(NC(=O)C2CCN(C(=O)N3CCOc4ccccc43)CC2)cc1 -13.3%
Cc1ccccc1Cn1nnc2c(=O)[nH]c(C3CCN(C(=O)c4ccccc4Cl)CC3)nc21 -14.9%
CCC1CN(C(=O)NCc2ccccc2)c2cc(C)ccc2O1 (configuration not stated) -14.1%
COc1ccc(NC(=O)N2CCN(S(=O)(=O)c3ccc4c(ccn4C)c3)CC2)cc1OC -13%
COCCCNC(=O)C(C)n1c2ccccc2c2cnn(C)c(=O)c21 (configuration not stated) 0.371%
COc1ccc(-c2noc(N3CCC(C(=O)Nc4ccc(OC)c(OC)c4)CC3)n2)cc1 5.99%
O=c1c2cc3c(cc2n(Cc2ccccc2)c(=O)n1Cc1nc(-c2ccccc2)no1)OCO3 -3.28%
COc1ccc(Cl)cc1Nc1cc(C)nc2nc(-c3ccccc3C)nn12 -12.2%
CN(C)c1ccc(C(CNC(=O)c2cccc(C(F)(F)F)c2)N2CCCC2)cc1 (configuration not stated) -15.6%
COc1ccc(Br)cc1CNC(=O)c1cc(=O)[nH]c2ccc(S(=O)(=O)N3CCCCC3)cc12 -9.01%
Cc1cccc(C)c1NC(=O)CN(Cc1ccc(Br)cc1)S(=O)(=O)c1ccccc1 -13.7%
CCCSc1nc(-c2ccc(OC)cc2)cc(-c2ccccc2OC)c1C#N -8.72%
CN(C)[C@@H](CCOc1cccc2ccccc12)c1ccccc1 -6.67%
CCOC(=O)c1ccc(NS(=O)(=O)c2ccc3c(c2)OCCO3)cc1 -4.48%
CCCC(=O)Nc1cccc(-c2cn3cccnc3n2)c1 -20.5%
Cc1ccc(CNc2ncnc3c2c(-c2ccccc2)cn3-c2ccccc2)cc1 -16.7%
CCOc1ccc(NC(=O)C2CCN(S(=O)(=O)c3c(C)noc3/C=C/c3c(C)cc(C)cc3C)CC2)cc1 -5.31%
CCCCCCCC/C=C\CCCCCCCCN -12.8%
COc1ccc(OC)c(-c2noc(N3CCN(c4cc(C)ccc4C)CC3)n2)c1 -11.2%
CC(C)[N+](C)(C)CC(O)COc1cccc2ccccc12 (configuration not stated) -1.22%
CCN(CC)c1ccc(NC(=O)c2sc3ccccc3c2Cl)cc1 3.9%
CCCC(CCC)C(=O)O -31.4%
COc1ccc(OC)c(CCNC(=O)Cn2ccc3cc(S(=O)(=O)N4CCCCC4)ccc32)c1 -6.32%
CCOC(=O)Cc1ccc(NC(=O)Nc2cc3c(cc2N2CCCCC2)n(C)c(=O)n3C)cc1 -13.9%
CCCn1c(=N)c(C(=O)NCc2cccnc2)cc2c(=O)n3ccccc3nc21 -8.89%
Cc1ccc(N(C)S(=O)(=O)c2nnc(NC(=O)CC(C)C)s2)cc1 -1.85%
COc1ccccc1-c1cc2nc(C)c(CCC(=O)NCCc3ccc(SC)cc3)c(C)n2n1 -19%
Cc1ccc(C)c(CNC(=O)c2ccc3c(c2)nc2n3CCC(C)C2)c1 (configuration not stated) -11%
CCOC(=O)c1cc(OC(=O)c2ccc(OC)cc2)n(-c2ccccc2)n1 -2.85%
COc1ccc(NC(=O)C(Cc2ccccc2)NS(=O)(=O)c2ccc3c(c2)CCN3C(C)=O)cc1 (configuration not stated) -8.43%
CCOc1ccc(CNC(=O)Cn2ccc3cc(S(=O)(=O)N4CCCCCC4)ccc32)cc1 7.3%
CCCCOC(=O)c1ccc(NC(=O)CC2NCCNC2=O)cc1 (configuration not stated) -13.6%
COCCCNC(=O)C1CCC(CNS(=O)(=O)c2ccc(OC)cc2)CC1 (configuration not stated) -15.8%
CCOC(=O)c1cc2c(=O)n3ccccc3nc2n(C)c1=NC(=O)c1c(-c2ccccc2Cl)noc1C -5.52%
Cc1ccc(NC(=O)Cn2c(=O)ccc3cc(S(=O)(=O)N4CCC(C)CC4)ccc32)c(C)c1 -13.5%
O=C(Nc1ccc(F)cc1F)c1ccc2c(c1)CCN2S(=O)(=O)c1ccc(Cl)cc1 -7.23%
COc1ccc(-n2cc(C(=O)Nc3cc(F)ccc3F)c3ccccc3c2=O)cc1 -7.77%
COc1cc(-c2cc3n(C)c(C)c(CCC(=O)NCc4ccccc4)c(=O)n3n2)cc(OC)c1OC -10.2%
